Screen size: about 310,000 compounds; about 2,200 (0.71%) showed an effect of 50% or more. Effects have a minus sign here. The list shows a part of the results.
Target: human ether-à-go-go-related gene (hERG) potassium channel (human, UniProt Q12809)
Assay: primary screen, population patch clamp on CHO cells stably expressing hERG

Sequence of human ether-à-go-go-related gene (hERG) potassium channel (Q12809 whole entry, looked up): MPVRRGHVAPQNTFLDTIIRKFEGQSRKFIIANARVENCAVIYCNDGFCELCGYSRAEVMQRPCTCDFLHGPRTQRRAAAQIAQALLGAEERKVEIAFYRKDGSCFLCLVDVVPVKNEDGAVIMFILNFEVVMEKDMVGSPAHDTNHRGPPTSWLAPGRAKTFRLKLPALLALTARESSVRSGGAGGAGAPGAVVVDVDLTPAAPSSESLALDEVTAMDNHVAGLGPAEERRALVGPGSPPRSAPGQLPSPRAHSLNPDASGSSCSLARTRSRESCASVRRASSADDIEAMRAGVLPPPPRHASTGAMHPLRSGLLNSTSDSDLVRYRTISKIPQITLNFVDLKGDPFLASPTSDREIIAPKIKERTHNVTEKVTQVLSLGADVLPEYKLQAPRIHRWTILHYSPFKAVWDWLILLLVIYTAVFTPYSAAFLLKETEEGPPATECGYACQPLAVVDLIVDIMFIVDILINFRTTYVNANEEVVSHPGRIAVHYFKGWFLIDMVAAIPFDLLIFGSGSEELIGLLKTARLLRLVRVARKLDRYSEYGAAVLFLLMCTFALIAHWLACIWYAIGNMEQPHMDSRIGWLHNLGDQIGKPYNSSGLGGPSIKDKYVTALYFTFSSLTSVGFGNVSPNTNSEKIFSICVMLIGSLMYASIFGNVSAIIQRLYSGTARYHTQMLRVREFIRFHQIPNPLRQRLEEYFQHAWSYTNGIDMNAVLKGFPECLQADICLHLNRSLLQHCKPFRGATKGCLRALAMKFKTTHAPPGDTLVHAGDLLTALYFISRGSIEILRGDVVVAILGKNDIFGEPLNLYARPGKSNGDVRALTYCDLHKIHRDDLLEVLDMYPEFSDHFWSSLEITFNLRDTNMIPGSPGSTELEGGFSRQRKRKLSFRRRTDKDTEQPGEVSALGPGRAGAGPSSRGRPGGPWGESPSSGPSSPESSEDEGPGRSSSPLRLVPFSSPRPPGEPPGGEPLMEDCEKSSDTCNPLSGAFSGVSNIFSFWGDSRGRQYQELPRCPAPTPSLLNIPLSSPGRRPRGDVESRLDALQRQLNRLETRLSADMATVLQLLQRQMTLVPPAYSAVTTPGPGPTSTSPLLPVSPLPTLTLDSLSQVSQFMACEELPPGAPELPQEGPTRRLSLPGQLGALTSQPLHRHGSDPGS

| Compound | hERG current change (%, negative = inhibition) at 1uM |
| --- | --- |
| Cc1ccc(C(=O)Nc2nnc(C)s2)o1 | 2.72% |
| O=C(NCc1ccccn1)c1ccc(Br)s1 | -3.89% |
| C/C(=N/NC(=O)c1ccco1)c1cccc(NC(=O)c2ccc(C)o2)c1 | -8.71% |
| OCC#Cc1ncc(C(F)(F)F)cc1Cl | 14.6% |
| COc1nc(N(CC(N)=O)S(=O)(=O)c2ccccc2)nc(C)c1Cl | 10.1% |
| CN1C(=O)N(C)c2ccc(Br)c3cccc1c23 | 12.6% |
| OCC1(Cc2ccccc2F)CCCN(CC2CCCCC2)C1 (centres unmarked) | 0.985% |
| CCc1nc2cc(Cl)c(Cl)cc2nc1CC | 14.3% |
| CN(CC(=O)Nc1ccc2c(c1)OCCO2)S(=O)(=O)c1ccc(F)cc1 | 3.63% |
| Cc1cccc(C)c1NC(=O)CN.Cl | 5.9% |
| Cc1ccc(NC(=O)COC(=O)CCc2nc3ccccc3c(=O)[nH]2)c(Br)c1 | 8.08% |
| Cc1cc(C)c(-c2c(O)c3cccnc3n(C)c2=O)c(C)c1 | 22.3% |
| O=C(CNc1cccc(F)c1)N1CCc2ccccc2C1 | 15.2% |
| COc1ccc(CCNCC(O)COc2c(C)cccc2C)cc1OC.O=C(O)C(=O)O (centres unmarked) | 7.9% |
| CC1CCN(S(=O)(=O)c2ccc(C(=O)NNC(=O)C3CC3)cc2)CC1 | 12.1% |
| CC(C)(C)NC(=O)NC(=O)COC(=O)Cc1c(F)cccc1Cl | 8.47% |
| C=CCNC(=S)N/N=C(\C)c1ccc(OC)cc1 | 19.8% |
| COCCOC(=O)CC1=NC(=O)CS1 | 10.6% |
| CCC(C)(C)n1nnnc1C(c1cccc(C#N)c1)N1CCN(c2cccc(C)c2C)CC1 (centres unmarked) | 7.31% |
| O=C(c1ccc(OC2CCN(Cc3ccccn3)CC2)cc1)N1CCCC(O)C1 (centres unmarked) | 9.27% |
| Cn1c(SCC(=O)N2CCN(C(=O)c3ccco3)CC2)nnc1-c1ccc(NS(C)(=O)=O)cc1 | 15.9% |
| COc1ccc(Cl)cc1CSc1n[nH]c(C)n1 | 16.6% |
| Cc1cc2c(cc1S(=O)(=O)N1CCN(c3cccc(C)c3C)CC1)OCCN2C | 0.0171% |

| Compound | hERG current change (%, negative = inhibition) at 1uM |
| --- | --- |
| COc1ccc(Cl)cc1N1CCN(CCNC(=O)Nc2ccccc2C)CC1 | -0.596% |
| Cc1onc(-c2c(Cl)cccc2Cl)c1C(=O)NC(C)(C)CO | -1.55% |
| COc1cccc(C2CC(C(F)(F)F)n3nc(C(=O)Nc4c(C)n(C)n(-c5ccccc5)c4=O)cc3N2)c1 (centres unmarked) | 17.1% |
| O=C(CN(Cc1ccco1)C(=O)CNS(=O)(=O)c1ccccc1)NCc1ccc(F)cc1 | -7.1% |
| Cc1ccc(S(=O)(=O)N(CC(=O)Nc2cccnc2)c2cccc(Br)c2)cc1 | 7.63% |
| CCNC(=S)N(Cc1ccco1)Cc1cc2cc3c(cc2[nH]c1=O)OCCO3 | 5.92% |
| COc1ccc(/C=C2/C(=O)NC(=O)N(C3CCCCC3)C2=O)cc1CSc1ccccn1 | 10.2% |
| O=C1CC(c2ccsc2)Sc2ccccc2N1 (centres unmarked) | -0.654% |
| CCN(CC)C(=O)CSc1nnc2nnc3cc(OC)ccc3n12 | 11.9% |
| COc1cccc(CN2CCN(C3CSCCSC3)CC2CCO)c1 (centres unmarked) | 5.67% |
| CC(C)(C)NC(=O)NCc1cccnc1 | 15.8% |
| COc1ccc(-c2nnc(SCc3cccc(C#N)c3)o2)cc1 | 9.14% |
| CCN(CC)c1ccc(NC(=O)COc2ccc(C#N)cc2)cc1S(=O)(=O)Nc1ccc(OC)cc1 | 8.74% |
| Clc1nc2ccccc2nc1-c1ccccc1 | 12.8% |
| Cc1ccc(CNS(=O)(=O)c2cccc3nsnc23)cc1 | -4.25% |
| COc1cc(/C=N/NC(=O)Cc2csc(N3CCOCC3)n2)cc(OC)c1O | 25.6% |
| CCN(CC)C(=O)c1cc(C(C)(C)C)c(O)c(C(C)(C)C)c1 | -11.1% |
| COc1ccc(-c2noc(-c3ccc(Cl)cc3[N+](=O)[O-])n2)cc1OC | 7.5% |
| CC(C)(C)OC(=O)N[C@@H](Cc1ccccc1)c1nnc(SCC(=O)c2ccc(Cl)cc2)o1 | 2.37% |
| CN(C)S(=O)(=O)N1CCC(Oc2ccc(C(=O)N3C[C@@H]4CCC[C@H]3C4)cc2)CC1 | 5.79% |
| COc1cc(C2c3sc(=O)[nH]c3SC3C4CCC(C4)C23)ccc1O (centres unmarked) | -1.15% |
| COc1ccc(CCN(C(=S)Nc2ccccc2)C2CC(=O)N(c3ccccc3)C2=O)cc1 (centres unmarked) | 9.33% |
| Cc1ccccc1NC(=O)NCc1ccco1 | 12.7% |

| Compound | hERG current change (%, negative = inhibition) at 1uM |
| --- | --- |
| O=C1CC(N2CCOCC2)=NN1c1ccc([N+](=O)[O-])cc1 | 5.54% |
| CCOC(=O)c1ccc(/[N+]([O-])=C/c2ccccc2)cc1 | 2.12% |
| C=C(C)CC(c1ccccc1)N(C(C)=O)c1ccco1 (centres unmarked) | 9.74% |
| Cc1cc(C)c(S(=O)(=O)Nc2c(C)n(C)n(-c3ccccc3)c2=O)cc1[N+](=O)[O-] | 12% |
| CC(Sc1nc(=O)cc(N)n1CCc1ccccc1)C(=O)NCc1ccccc1 (centres unmarked) | 2.71% |
| CC(C(=O)NCCCN1CCOCC1)n1cccc1C(=O)c1ccccc1 (centres unmarked) | 10.4% |
| O=C(Nc1ccc(Cl)cc1)C(Cl)C(=O)c1ccccc1 (centres unmarked) | 6.43% |
| O=C(Cn1nnc(-c2cccc(C(F)(F)F)c2)n1)NC1CCCC1 | 12.8% |
| COc1ccc(S(=O)(=O)Nc2ccccc2N2CCOCC2)cc1[N+](=O)[O-] | -2.92% |
| O=C(CCNS(=O)(=O)c1ccc(Br)cc1)NCCc1ccccc1 | 4.74% |
| COc1ccc(CCC(=O)N2CCN(S(=O)(=O)c3ccc(OC)cc3)CC2)cc1 | -4.89% |
| CCc1ccc(NC(=O)/C(C#N)=C/c2ccncc2)cc1 | -8.33% |
| Cc1cc(C)nc(NS(=O)(=O)c2ccc(NC(=S)NC(=O)C(C)(C)C)cc2)n1 | -11.8% |
| Cc1cc(NC(=O)CN(C)CC(=O)Nc2ccc(Cl)c(C(F)(F)F)c2)no1 | 0.073% |
| COc1ccc(-c2cc(=O)oc3c(C)c(OCc4nn[nH]n4)ccc23)cc1 | 11.3% |
| COC(=O)C1=CN(Cc2ccc(OC)c(OC)c2)C=C(C(=O)OC)C1c1cccc(F)c1 | 5.44% |
| Cc1ccc2c(C(=O)CN3CCN(C4CCCCC4)CC3)c(C)[nH]c2c1 | -16.2% |
| Cc1cc(Cl)n2nc(C)c(-c3ccc(Cl)cc3)c2n1 | 10.5% |
| CCOC(=O)N1CCN(C(=O)COc2ccc(S(=O)(=O)NCC(C)C)cc2C)CC1 | 8.75% |
| Cc1ccc(NC(=O)C2CCCN(S(=O)(=O)c3c(C)noc3C)C2)c(C)c1 (centres unmarked) | 0.751% |
| CCOc1ccc(CCNc2ccc3nnc(-c4ccccc4)n3n2)cc1OCC | 9.4% |
| O=S(=O)(c1ccc(-c2cn3ccccc3n2)cc1)N1CCOCC1 | 3.57% |
| CN(C)S(=O)(=O)c1cccc(NC(=S)NCCc2ccccn2)c1 | 16.5% |

| Compound | hERG current change (%, negative = inhibition) at 1uM |
| --- | --- |
| CCOc1ccccc1C(=O)OCC(=O)Nc1ccc(N2CCCCC2)cc1 | 0.518% |
| CCN1CCN(c2nnc(-c3ccccc3)c3ccccc23)CC1 | 0.672% |
| CCOC(=O)c1ccc(NS(=O)(=O)c2c(C)n(C)c(=O)n(C)c2=O)cc1 | 13.7% |
| O=C(NCc1cccnc1)c1ccccc1CCc1ccccc1 | -0.454% |
| CCOc1ccc(CCNC(=O)COC(=O)/C=C/c2ccc(OC(F)F)c(OC)c2)cc1OCC | 3.29% |
| CC(=O)c1sc2nc(C)cc(C)c2c1N | 1.22% |
| COc1ccc(C(CC(=O)O)NC(=O)c2ccccc2[N+](=O)[O-])cc1 (centres unmarked) | 15.3% |
| COc1ccc(C(=O)N/N=C/c2ccc(SC)cc2)cc1 | 8.54% |
| CCCCNC(=S)N(CCCN(C)C)Cc1cc2cc3c(cc2[nH]c1=O)OCO3 | 5.16% |
| CC(=O)C(Sc1ccc2nnc(-c3ccc(C)cc3)n2n1)C(C)=O | 7.24% |
| Cc1nc(=O)c(-c2ccccc2)c(C)n1CC1CCCO1 (centres unmarked) | 0.813% |
| Cc1cccn2c(CN(C)CC3CCCCO3)c(C(=O)N3CCCCC3)nc12 (centres unmarked) | 11.6% |
| CCOC(=O)c1ccc(NC(=O)C(=O)NCc2ccccn2)cc1 | 12.8% |
| COCCN(C(=O)Cc1cccs1)c1nnc(-c2ccncc2)s1 | 7.57% |
| COc1ccc(OC)c(Nc2cc(-c3ccccc3)nc(N)n2)c1 | 3.31% |
| NC(=O)CC(NC(=O)Cc1cccc2ccccc12)c1ccc(N2CCN(c3ccc(F)cc3)CC2)c([N+](=O)[O-])c1 (centres unmarked) | 14.2% |
| COc1ccc(-n2c(C)cc(/C=C3/SC(=S)N(C)C3=O)c2C)cc1 | 17% |
| Nc1cc(C(=O)OCC(=O)NNC(=O)c2cccs2)ccc1Cl | 13.5% |
| CCC(=O)Nc1cc(=O)[nH]c2nc(-c3ccc(Cl)cc3)nn12 | 19.5% |
| CC1(C(=O)O)C=CC2(CCCCC2)N1C(=O)c1ccccc1 (centres unmarked) | 13.7% |
